Read-outs that look alike come from different tables or passages of the source.
Experiments:
Experiment in all cases: cell-based or functional assay
human RXFP2 [1] = target: T1, human RXFP2 (human, UniProt Q8WXD0 1-754)
T1 sequence (looked up): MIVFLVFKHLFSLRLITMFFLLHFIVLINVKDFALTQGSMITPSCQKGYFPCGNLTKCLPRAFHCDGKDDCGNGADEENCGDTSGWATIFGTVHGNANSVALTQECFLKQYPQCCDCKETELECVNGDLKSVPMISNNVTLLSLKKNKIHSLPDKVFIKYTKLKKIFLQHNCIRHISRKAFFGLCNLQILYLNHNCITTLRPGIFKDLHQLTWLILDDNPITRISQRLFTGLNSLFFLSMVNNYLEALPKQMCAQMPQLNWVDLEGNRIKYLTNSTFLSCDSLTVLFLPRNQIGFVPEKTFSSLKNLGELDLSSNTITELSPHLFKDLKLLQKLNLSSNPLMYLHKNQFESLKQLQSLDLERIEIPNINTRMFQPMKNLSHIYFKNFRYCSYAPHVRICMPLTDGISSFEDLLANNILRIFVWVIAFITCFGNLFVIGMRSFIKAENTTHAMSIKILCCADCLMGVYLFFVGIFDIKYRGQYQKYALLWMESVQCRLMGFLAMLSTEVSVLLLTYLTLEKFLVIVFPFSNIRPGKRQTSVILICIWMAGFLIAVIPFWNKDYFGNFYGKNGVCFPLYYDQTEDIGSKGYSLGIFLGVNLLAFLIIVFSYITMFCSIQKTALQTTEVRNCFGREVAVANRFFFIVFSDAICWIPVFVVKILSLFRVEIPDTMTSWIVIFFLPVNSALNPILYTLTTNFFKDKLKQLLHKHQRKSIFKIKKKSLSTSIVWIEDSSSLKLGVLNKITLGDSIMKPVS

human RXFP1 [2] = target: T2, human RXFP1 (human, UniProt Q9HBX9 1-757)
T2 sequence (looked up): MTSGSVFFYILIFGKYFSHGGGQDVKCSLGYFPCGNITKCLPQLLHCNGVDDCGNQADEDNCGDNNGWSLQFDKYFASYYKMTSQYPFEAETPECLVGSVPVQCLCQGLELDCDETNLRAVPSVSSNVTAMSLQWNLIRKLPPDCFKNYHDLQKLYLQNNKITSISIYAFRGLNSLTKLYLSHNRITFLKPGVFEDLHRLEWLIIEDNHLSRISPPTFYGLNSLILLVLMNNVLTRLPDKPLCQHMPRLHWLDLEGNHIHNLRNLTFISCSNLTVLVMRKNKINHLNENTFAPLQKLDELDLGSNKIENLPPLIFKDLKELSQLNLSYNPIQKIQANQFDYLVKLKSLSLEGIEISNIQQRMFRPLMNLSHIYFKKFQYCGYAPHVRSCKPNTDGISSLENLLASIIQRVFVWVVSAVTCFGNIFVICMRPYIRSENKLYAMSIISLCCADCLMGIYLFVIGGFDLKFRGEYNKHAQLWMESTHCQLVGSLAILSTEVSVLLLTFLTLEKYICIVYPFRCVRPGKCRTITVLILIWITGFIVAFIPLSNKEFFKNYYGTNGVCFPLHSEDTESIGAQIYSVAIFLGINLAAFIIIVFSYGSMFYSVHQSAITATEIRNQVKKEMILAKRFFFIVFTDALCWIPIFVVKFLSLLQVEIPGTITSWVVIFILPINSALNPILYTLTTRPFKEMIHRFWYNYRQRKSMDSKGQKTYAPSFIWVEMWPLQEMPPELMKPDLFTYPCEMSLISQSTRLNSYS

mouse RXFP1 [3] = target: T3, mouse RXFP1 (mouse, UniProt Q6R6I7 1-758)
T3 sequence (looked up): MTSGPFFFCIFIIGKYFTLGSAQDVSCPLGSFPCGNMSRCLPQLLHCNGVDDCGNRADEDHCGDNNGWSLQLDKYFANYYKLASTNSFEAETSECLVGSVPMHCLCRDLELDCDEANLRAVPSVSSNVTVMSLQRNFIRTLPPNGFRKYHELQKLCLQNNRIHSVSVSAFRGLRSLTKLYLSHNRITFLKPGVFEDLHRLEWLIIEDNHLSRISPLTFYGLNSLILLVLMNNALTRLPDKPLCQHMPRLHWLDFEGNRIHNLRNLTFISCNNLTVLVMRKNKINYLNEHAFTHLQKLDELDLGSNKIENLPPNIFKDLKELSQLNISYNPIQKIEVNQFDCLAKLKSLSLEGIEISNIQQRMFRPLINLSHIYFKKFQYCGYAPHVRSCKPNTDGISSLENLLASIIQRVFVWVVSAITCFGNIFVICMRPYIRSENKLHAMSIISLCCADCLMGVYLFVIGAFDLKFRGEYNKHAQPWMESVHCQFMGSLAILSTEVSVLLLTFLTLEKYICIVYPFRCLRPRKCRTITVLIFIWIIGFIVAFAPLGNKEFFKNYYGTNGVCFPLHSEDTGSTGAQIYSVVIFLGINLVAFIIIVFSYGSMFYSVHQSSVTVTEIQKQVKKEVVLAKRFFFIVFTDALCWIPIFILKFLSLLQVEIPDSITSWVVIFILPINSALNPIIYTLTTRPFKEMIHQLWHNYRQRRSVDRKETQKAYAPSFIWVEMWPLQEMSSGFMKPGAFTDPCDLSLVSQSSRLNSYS

human RXFP2 [4] = target: T1, human RXFP2; remark: listed apart in the source
human RXFP1 [5] = target: T2, human RXFP1; remark: listed apart in the source
mouse RXFP1 [6] = target: T3, mouse RXFP1; remark: listed apart in the source

B1: RELAX0010 (Fc fusion)
chain: [letters of human IgG1 Fc omitted]GGGGSGGGGSGGGGSQLYSALANKCCHVGCTKRSLARFCGGGGSGGGGSGGGGSSWMEEVIKLCGRELVRAQIAICGMSTWS
With B1 the “EC50 hRXFP2 (M), cAMP assay” value (human RXFP2 [1]) was 2.88e-07 M, the “EC50 hRXFP1 (M), cAMP assay” value (human RXFP1 [2]) was 8.3e-12 M and the “EC50 mRXFP1 (M), cAMP assay” value (mouse RXFP1 [3]) was 7.64e-12 M. The “EC50 hRXFP2 (M), cAMP assay” value (human RXFP2 [4]) was 2.88e-07 M, the “EC50 hRXFP1 (M), cAMP assay” value (human RXFP1 [5]) was 8.3e-12 M and the “EC50 mRXFP1 (M), cAMP assay” value (mouse RXFP1 [6]) was 7.64e-12 M.

Reference: US20220017591A1 (AstraZeneca / MedImmune, published 2022)
